In all, about 1,000 compounds were measured (“relative growth recovery (pomalidomide 10 uM = 100%, DMSO = 0%)”: median about -1.6, highest 2% from about 21 on). The list shows a part of the results.

In this test the test system is HEK293FT dCK*-IKZF1. In words: relative growth recovery (pomalidomide 10 uM = 100%, DMSO = 0%); higher = more growth rescue (IKZF1 fusion degradation). The note with it: compound concentration: 5 uM; AraC concentration: 0.3 uM; overnight pretreatment + 4 days AraC. As for the experimental part:
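Growth recovery screen of the molecular-glue-like (Specs) library. HEK293FT cells expressing a dCK*-IKZF1 fusion (primary) or dCK* alone (counter) were pretreated overnight with compound at 5 uM, then given 0.3 uM AraC for 4 days. Hoechst nuclei were counted by imaging. Primary: normalised to pomalidomide (100%) and DMSO (0%), mean of 2 replicates. Counter: normalised to no-AraC (100%) and AraC+DMSO (0%), single replicate.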
Consider `COc1nccnc1NS(=O)(=O)c1ccc(NCc2ccccc2O)cc1`, for which the relative growth recovery is -3.99%. Consider `CS(=O)(=O)NCC(=O)N1CCC(c2cccc(Nc3ncc(-c4ccccc4)s3)n2)CC1`, for which the relative growth recovery is -20.5%. Regarding `Cc1csc(Nc2cccc(C3CCCN3C(=O)COCCN3CCCC3=O)n2)n1` (stereo not drawn), the relative growth recovery amounted to 1.94%. The same measure for `O=C(O)c1ccc(Oc2ccc3c(c2)C(=O)N(c2nccs2)C3=O)cc1`: 1.86%; for `NC(=O)CN1CCCC(c2csc(Nc3ccccn3)n2)C1` (stereo not drawn): 3.12%; for `COc1ccccc1OCC(=O)Nc1ccc(S(=O)(=O)Nc2ncccn2)cc1`: 1.59%. For `Cc1cnc(Nc2cccc(C3CCN(C(=O)CN(C)C)CC3)n2)s1`, the relative growth recovery is -13%. With `COCCC(=O)N1CCC(c2cccc(Nc3ncc(C)s3)n2)CC1`, the relative growth recovery was -3.65%. On to `CC(=O)Nc1ccc(-c2csc(Nc3cccc(C)n3)n2)cc1`, for which the relative growth recovery turned out to be 0.905%.

`O=C(O)CCOCCOCCNc1cccc2c1C(=O)N(C1CCC(=O)NC1=O)C2=O` (stereo not drawn): the relative growth recovery stood at 4.37%. Consider `COc1cc(NS(=O)(=O)c2ccc(NS(=O)(=O)c3ccccc3)cc2)nc(OC)n1`, for which the relative growth recovery was -5.07%. With `CCCOc1ccc(/C=C/C(=O)Nc2ccc(S(=O)(=O)Nc3ncccn3)cc2)cc1OC`, the relative growth recovery was -2.5%. In the case of `Cc1cnc(Nc2cccc(C3CCN(C(=O)CCc4nc5ccccc5[nH]4)CC3)n2)s1` it was -4.26%; in that of `COc1ccccc1CCC(=O)N1CCC(c2cccc(Nc3nc(C)cs3)n2)CC1`, 2.75%.

In the case of `Cc1cc(C)nc(NS(=O)(=O)c2ccc(NC(=O)CSc3nc(C)cc(C)c3C#N)cc2)n1`, the relative growth recovery was -4.5%. As to `Cc1cccc(OCC(=O)Nc2ccc(S(=O)(=O)Nc3cc(C)nc(C)n3)cc2)c1`, the relative growth recovery was -1.38%. In the case of `CCCOc1ccc(C(=O)Nc2ccc(S(=O)(=O)Nc3nc(C)cc(C)n3)cc2)cc1` it was -2.85%; in that of `Cc1cc(C)cc(OCC(=O)Nc2ccc(S(=O)(=O)Nc3ncccn3)cc2)c1`, -0.16%. As to `Cc1cnc(Nc2cccc(C(CO)C3CCN(C(=O)C4(NC(=O)OC(C)(C)C)CCCCC4)CC3)n2)s1` (stereo not drawn), the relative growth recovery is -3.12%.

As to `CCOCCC(=O)Nc1ccc(S(=O)(=O)Nc2ncccn2)cc1`, the relative growth recovery came out at 0.59%. Turning to `Cc1ccnc(NS(=O)(=O)c2ccc(NC(=O)c3ccc(Cl)cc3[N+](=O)[O-])cc2)n1`, the relative growth recovery was -0.255%. The same measure for `Cc1cc(C)nc(NS(=O)(=O)c2ccc(NC(=O)c3ccc(Cl)cc3Cl)cc2)n1`: -0.215%; for `Cc1ccnc(NS(=O)(=O)c2ccc(NC(=O)Cc3ccc(Cl)cc3)cc2)n1`: 2.92%; for `O=C(CSc1nnc2c(n1)[nH]c1ccc(Cl)cc12)Nc1ccc(Cl)cc1`: 4.82%. Take `CC(C)(C)OC(=O)N1CCOCC1C(=O)N1CCC(c2cccc(Nc3ncc(-c4ccccc4)s3)n2)CC1` (stereo not drawn): the relative growth recovery was -4.08%.

For the compound `CN(CCN1CCC(C(=O)O)CC1)c1cccc2c1C(=O)N(C1CCC(=O)NC1=O)C2=O` (stereo not drawn), the relative growth recovery was found to be 5.47%. On to `Cc1cnc(Nc2cccc(C3CCN(C(=O)C4C5C=CC6(CN(C)C(=O)C46)O5)CC3)n2)s1` (stereo not drawn), for which the relative growth recovery is -3.56%. Turning to `O=C(Nc1ccc(S(=O)(=O)Nc2ncccn2)cc1)c1ccc(Br)cc1`, the relative growth recovery is 0.355%. As to `CNC(=O)C1(c2cccc(Nc3ncc(C)s3)n2)CN(C(=O)Cn2c(CC(C)C)nc3ccccc32)CCO1` (stereo not drawn), the relative growth recovery stood at 2.15%. With `Cc1cnc(Nc2cccc(C3CCN(C(=O)C4(NC(=O)CC(C)C)CCCCC4)CC3)n2)s1`, the relative growth recovery is -17.9%.

`CC(=O)Nc1ccc(S(=O)(=O)N(Cc2ccccc2)c2ccccn2)cc1`: the relative growth recovery came to 17.3%. `Cc1cnc(Nc2cccc(C3CCCN3CC(N)=O)n2)s1` (stereo not drawn): the relative growth recovery was -20.7%.

With `CCOC(=O)c1ccc(N2C(=O)c3ccc(Oc4cccc(N)c4)cc3C2=O)cc1`, the relative growth recovery was determined as 0.65%.

For `COc1cccc(OC)c1C(=O)Nc1ccc(S(=O)(=O)Nc2ncccn2)cc1`, the relative growth recovery is -5.34%. Turning to `Cc1csc(Nc2cccc(C3CCCN3C(=O)CCOc3ccccc3C)n2)n1` (stereo not drawn), the relative growth recovery was determined as 11.5%. In the case of `O=C1CCC(N2C(=O)c3ccc(N4CCC(C(=O)O)CC4)cc3C2=O)C(=O)N1` (stereo not drawn), the relative growth recovery amounted to 1.72%. In the case of `Cc1ccc(C(=O)Nc2ccc(S(=O)(=O)Nc3nc(C)cc(C)n3)cc2)cc1` it was -2.35%; in that of `Cc1cc(C)nc(NS(=O)(=O)c2ccc(NC(=O)Nc3ccccc3)cc2)n1`, -3.6%. Regarding `O=C(Nc1ccc(S(=O)(=O)Nc2ncccn2)cc1)c1cc(Cl)ccc1Cl`, the relative growth recovery worked out at 0.76%. In the case of `Cc1cc(C)nc(NS(=O)(=O)c2ccc(Nc3nc(-c4cccnc4)cs3)cc2)n1` it was -1.15%; in that of `Cc1cnc(Nc2cccc(C3CN(C(=O)Cc4ccccc4)CCO3)n2)s1` (stereo not drawn), -6.84%; in that of `C=CCc1cccc(CNc2ccc(S(=O)(=O)Nc3nccnc3OC)cc2)c1O`, -2.75%. `Cc1csc(Nc2cccc(C3CCN(C(=O)c4cnccn4)CC3)n2)n1`: the relative growth recovery was determined as 7.21%. For the compound `Cc1cc(C)cc(OCC(=O)Nc2ccc(S(=O)(=O)Nc3cc(C)nc(C)n3)cc2)c1`, the relative growth recovery was determined as 0.995%. As for `Cc1ccnc(NS(=O)(=O)c2ccc(NC(=O)Cc3c(F)cccc3Cl)cc2)n1`, the relative growth recovery was -0.465%. `CC(C)c1ccccc1OCC(=O)Nc1ccc(S(=O)(=O)Nc2ccccn2)cc1`: the relative growth recovery was -2.54%.

With `Cc1cnc(Nc2cccc(C3CCN(C(=O)C4CCCCC4C(=O)N4CCCC4)CC3)n2)s1` (stereo not drawn), the relative growth recovery was -17.5%.

As for `Cc1cc(NS(=O)(=O)c2ccc(NC(=O)c3ccccc3C)cc2)nc(C)n1`, the relative growth recovery was -1.93%.

The record behind these values is the supplement of paper PMC12340641.
